From PubChem BioAssay AID504466 (National Center for Advancing Translational Sciences (NCATS), 2011)
Among all 330,000 compounds or so, about 4,200 (1.3%) were called active. The inconclusive results got no clear call from the source; some entries with a clear call stand among them for comparison. The call rests on the fitted dose curve; in most records, active means well fitted activation curve with a large enough effect; inconclusive means small, poorly fitted or top-dose-only effect; inactive means no such curve, though single readings can be large or run the other way. A potency beside an inconclusive call is a rough fit, not a confirmed value.
Potency means the concentration at half of the fitted maximal effect; tags describe the fitted curve by direction and shape.

Assay: qHTS screen for small molecules that induce genotoxicity in human embryonic kidney (HEK293T) cells expressing luciferase-tagged ELG1; further: nearly all actives have a fitted effect of over 60% in size; on activity change, positive = activation: % of control where 0% means no effect
Details: HEK293T ELG1-luciferase reporter, luminescence, 16 h; series mostly up to 46 µM; activity change, positive = activation: at the top concentration
In short: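 Reporter readout depends on ELG1 protein level, which increases with genetic stress. After 16 hr compound exposure at 37 °C, luciferase activity was quantified using ONE-Glo.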
For NNc1nc2cc3c(cc2s1)OCCO3, the Potency was inconclusive: 13 µM [activator, partial curve, poor fit].
With COc1ccc(/C=C/C2=NN(C)C(=O)CC2)cc1 the Potency was inconclusive: 5.62 µM [activator, partial curve].
With O=C(COc1ccccc1)NCCSc1ccccc1 the Potency was active: 20.6 µM.
With CCc1cc2c(=O)c(-c3ccon3)c(N)oc2cc1OC the Potency was inconclusive: 5.17 µM [activator, single point].
In the case of Cc1cc(C(=O)N/N=C\c2cc(C(C)(C)C)ccc2O)n[nH]1, the Potency is reported as inconclusive: 8.2 µM [activator, single point].
With O=C(Cc1n[nH]c(=O)c2ccccc12)NC(c1ccccc1)c1ccccc1 the Potency was inconclusive: 29.1 µM [activator, single point].
In the case of O=C(CSc1nc(C(F)(F)F)cc(=O)[nH]1)NCc1ccc2c(c1)OCO2, the “activity change, positive = activation” value is reported as inactive: -0.656%.
With C[C@H](CO)N1C[C@H](C)[C@@H](CN(C)C(=O)Nc2ccc(C(F)(F)F)cc2)Oc2c(NS(=O)(=O)c3ccc(F)cc3)cccc2C1=O the “activity change, positive = activation” value was inactive: -0.412%.
For CC(=O)Nc1ccc(NC(=O)CSc2ccc(-c3ccc4c(c3)OCO4)nn2)cc1, the Potency was inconclusive: 25.9 µM [activator, single point].
In the case of C/C(=N/NC(=O)c1ccc2c(c1)OCO2)c1ccc(NC(=O)c2ccc(F)cc2)cc1, the Potency is reported as active: 14.6 µM.
With CC(C)(C)C1CCc2sc(C(=O)NNC(=O)CCl)cc2C1 (centres undefined) the Potency was inconclusive: 16.4 µM [activator, partial curve, poor fit].
For CCN(CC)S(=O)(=O)c1cc(NC(=O)CNc2cccc(S(=O)(=O)N3CCOCC3)c2)ccc1C, the Potency was active: 5.17 µM.
In the case of O=C(C[C@H]1C/C=C\C[C@@H](NC(=O)OCC2c3ccccc3-c3ccccc32)C(=O)O[C@@H](c2ccccc2)CNC1=O)N[C@H](CO)Cc1ccccc1, the Potency is reported as inconclusive: 29.1 µM [activator, partial curve, poor fit].
In the case of Cc1cccc(N(C(=O)c2snc(C(N)=O)c2N)C(C(=O)NC2CCCC2)c2ccco2)c1 (centres undefined), the “activity change, positive = activation” value is reported as inactive: 3.35%.
In the case of CSc1nc2ccccc2n1Cc1cccc(F)c1, the Potency is reported as inconclusive: 20.6 µM [activator, single point].
In the case of Cc1cc(=O)oc2cc(OCC3CC(c4ccccc4)=NO3)ccc12 (centres undefined), the “activity change, positive = activation” value is reported as inactive: 8.47%.
With CCCOc1ccc(C(=O)Nc2cccnc2)cc1 the Potency was active: 10.3 µM.
For COc1ccc2oc(=O)c(-c3nc(C)cs3)cc2c1, the Potency was inconclusive: 5.8 µM [activator, partial curve, poor fit].
With O=C(O)c1ccc(-n2cccc2/C=C2/NC(=O)N(c3ccccc3)C2=O)cc1 the “activity change, positive = activation” value was inactive: -3%.
In the case of Cc1ccc(CNC(=O)C(=O)NCCC2CCCCN2S(=O)(=O)c2cccs2)cc1 (centres undefined), the “activity change, positive = activation” value is reported as inactive: -4%.
In the case of Cc1ccccc1C(=O)NNC(=O)c1cccn1C, the Potency is reported as inconclusive: 29.1 µM [activator, single point].
For CCCCC1(Cc2ccc(OC)c([N+](=O)[O-])c2)C(=O)N(c2ccccc2)N(c2ccccc2)C1=O, the Potency was inconclusive: 32.6 µM [activator, partial curve, poor fit].
For Fc1ccc(CSc2nnc3ccc(-c4ccncc4)nn23)cc1, the “activity change, positive = activation” value was inactive: 7.98%.
In the case of Nc1c(C(=O)C2CC2)sc2nc3c(cc12)CCC3, the Potency is reported as inconclusive: 8.2 µM [activator, partial curve].
With CCn1cnc2sc(C(=O)Oc3ccc(Br)cc3)c(C)c2c1=O the Potency was inconclusive: 23.1 µM [activator, single point].
For CCc1ccc(-c2nc(-c3ccncc3)no2)cc1, the Potency was active: 0.731 µM.
For Cc1ccc(-c2noc(-c3ccccc3F)n2)cc1, the Potency was active: 2.59 µM.
In the case of Cc1cc(C)c2oc(-c3cccc(N)c3)nc2c1, the Potency is reported as inconclusive: 16.4 µM [activator, single point].
For COc1ccc(N2CCN(S(=O)(=O)CCNC(=O)COc3ccc(Cl)cc3)CC2)cc1, the “activity change, positive = activation” value was inactive: 3.33%.
For CC1CCc2c(C(=O)NCc3ccccn3)csc2C1 (centres undefined), the Potency was inconclusive: 20.6 µM [activator, partial curve].
For Cc1ccccc1OCCN1C(=O)C(=O)c2cccc(C)c21, the “activity change, positive = activation” value was inactive: 0.806%.
In the case of CCOc1ccc(NC(=O)CCCn2c(=S)[nH]c3ccsc3c2=O)cc1, the “activity change, positive = activation” value is reported as inactive: 2.56%.
For COc1ccc(-c2cc3ncc(C(C)=O)c(C)n3n2)cc1, the Potency was inconclusive: 4.61 µM [activator, full curve].
For CN(C(=O)c1cccc(COc2ccc(Cl)cc2Cl)c1)c1ccccc1, the Potency was active: 2.06 µM.
In the case of Cc1ccccc1Nc1nc(N)nc(CN(C)c2ccccc2)n1, the Potency is reported as inconclusive: 32.6 µM [activator, partial curve, poor fit].
With CCNC(=S)NNC(=O)c1csc(C)c1 the “activity change, positive = activation” value was inactive: -1.26%.
In the case of COc1ccc(CNC(=O)c2ccc(-c3ccccc3)cc2)cc1, the Potency is reported as inconclusive: 16.4 µM [activator, partial curve, poor fit].
With COc1ccc2cc(OCC(=O)NNC(=O)Nc3ccc(F)cc3)ccc2c1 the “activity change, positive = activation” value was inactive: -6.04%.
In the case of CCOC(=O)c1c(NC(=O)COC(=O)c2cnc(C)cn2)sc(C(=O)N(C)C)c1C, the “activity change, positive = activation” value is reported as inactive: 3.82%.
For COc1ccc(NC(=O)Nc2ccc3oc(C)nc3c2)cc1, the Potency was inconclusive: 18.3 µM [activator, partial curve].
For Cc1ccc(S(=O)(=O)N(CC(=O)N(C(C)C)C(C)C)C(=O)N2CCN(C)CC2)cc1, the “activity change, positive = activation” value was inactive: 1.01%.
In the case of Cc1ccc(Cn2ccc(-c3cnc(-c4ccccc4)s3)n2)cc1, the Potency is reported as inconclusive: 11.6 µM [activator, partial curve].
In the case of COc1ccc(NC(=O)CS(=O)CC(=O)Nc2cccc3cccnc23)cc1 (centres undefined), the “activity change, positive = activation” value is reported as inactive: -0.467%.
For CC(=O)c1c(C)[nH]c(C(=O)NCCC2=CCCCC2)c1C, the Potency was active: 9.2 µM.
In the case of Cc1ccc(S(=O)(=O)N2CCOC2CNC(=O)C(=O)NCc2ccc(Cl)cc2)cc1 (centres undefined), the “activity change, positive = activation” value is reported as inactive: -17.8%.
For COc1ccc(Cc2[nH]n3c(=O)cc(C(C)C)nc3c2-c2ccccc2)cc1, the “activity change, positive = activation” value was inactive: -7.08%.
In the case of Cc1ccc(/C=C/C(=O)Nc2ccc(S(N)(=O)=O)cc2)o1, the “activity change, positive = activation” value is reported as inactive: -0.827%.
With Cc1cc(-c2nnc(-c3cccc(Cl)c3)o2)no1 the Potency was inconclusive: 6.51 µM [activator, partial curve].
In the case of COc1ccc(N/C(C)=C/C(=O)c2ccccc2)cc1, the Potency is reported as inconclusive: 11.6 µM [activator, partial curve].
In the case of CC(=NC1CC1)C1=C(O)c2ccccc2C1=O, the Potency is reported as inconclusive: 4.61 µM [activator, partial curve, poor fit].
In the case of Cc1cc(Cc2ccc([N+](=O)[O-])cc2)c(C)cn1, the “activity change, positive = activation” value is reported as inactive: -1.35%.
For O=C(NCc1ccccc1)C1CCC1, the “activity change, positive = activation” value was inactive: -0.219%.
In the case of CN(C)C(CNC(=O)c1cc(-c2ccco2)nc2ccccc12)c1ccccc1 (centres undefined), the “activity change, positive = activation” value is reported as inactive: 9.53%.
With CC(Sc1ccccc1)C(=O)N1CCN(S(=O)(=O)c2ccccc2C(F)(F)F)CC1 (centres undefined) the “activity change, positive = activation” value was inactive: -6.64%.
In the case of O=c1[nH]c2ccccc2c2nc3ccccn3c12, the Potency is reported as inconclusive: 23.1 µM [activator, partial curve, poor fit].
With Cc1cc(C(=O)COC(=O)c2ccc3c(c2)NC(=O)CS3)c(C)n1CCc1ccc(Cl)cc1 the Potency was inconclusive: 18.3 µM [activator, partial curve, poor fit].
In the case of S=C(NCCCN1CCOCC1)Nc1ccc(Cl)c(Cl)c1, the “activity change, positive = activation” value is reported as inactive: 0.239%.
For CC1=CC(C)(C)[N+](C)(C)c2ccc(C)cc21, the “activity change, positive = activation” value was inactive: -5.86%.
With Cc1nc2cc(NC(=O)NCc3ccco3)ccc2n1C the Potency was active: 14.6 µM.
With COc1ccc(-c2ccc(SCC(=O)N3CCCC3)nn2)cc1OC the “activity change, positive = activation” value was inactive: -1.5%.
With O=C(N/N=C/c1ccc2ncccc2c1)c1ccco1 the Potency was active: 2.59 µM.
With Cc1ccc(C(=O)NC2=NCCS2)cc1Cl the Potency was inconclusive: 8.2 µM [activator, partial curve].
For O=C(Cc1ccc(S(=O)(=O)N2CCCC2)s1)Nc1nc2c(s1)CCCC2, the Potency was inconclusive: 32.6 µM [activator, partial curve, poor fit].
In the case of Nc1[nH]ncc1N=Nc1ccc(Cl)cc1, the Potency is reported as active: 18.4 µM.
With O=C(NCc1ccccn1)NC1CCCCC1 the “activity change, positive = activation” value was inactive: 1.91%.
For O=C(CCCn1c(=S)[nH]c2cc3c(cc2c1=O)OCO3)N1CCN(c2ccccc2F)CC1, the “activity change, positive = activation” value was inactive: -14.7%.
In the case of Cc1cc(C)cc(NC(=O)[C@H](NC(=O)[C@@H]2Cc3ccccc3CN2)c2ccccc2)c1, the “activity change, positive = activation” value is reported as inactive: 1.21%.
With Cc1ccc(-n2c(C)cc(C(=O)CSc3n[nH]c(N)n3)c2C)cc1 the “activity change, positive = activation” value was inactive: 0.701%.
With Cc1cc2nc(-c3ccc[nH]c3=O)[nH]c2cc1C the Potency was inconclusive: 0.461 µM [activator, partial curve, poor fit].
In the case of COc1ccc(/C=N/N2C(=N)SCC2=O)cc1, the Potency is reported as inconclusive: 23.1 µM [activator, partial curve, poor fit].
With CCCn1c(N)c(C(=O)CSc2nnc(N)s2)c(=O)[nH]c1=O the “activity change, positive = activation” value was inactive: -3.08%.
With Clc1ccc2c(c1)[C@H]1OCC[C@H]1[C@@H](c1ccco1)N2 the Potency was inconclusive: 20.6 µM [activator, single point].
For C/C=C\C(=O)Nc1cccc(C2=NOC3(C2)C[C@@H](C(N)=O)N(C(=O)c2ccccc2)C3)c1 (some centres undefined), the “activity change, positive = activation” value was inactive: -0.207%.
For Cc1cc(Cl)ccc1OCC(=O)NNC(=O)c1ccco1, the Potency was inconclusive: 14.6 µM [activator, partial curve, poor fit].
In the case of COc1ccc(OCC(O)CNC(=O)c2ccccc2)cc1 (centres undefined), the “activity change, positive = activation” value is reported as inactive: 0.445%.
In the case of CCOc1ccc(NC(=O)Nc2nnc(CC)s2)cc1, the Potency is reported as inconclusive: 29.1 µM [activator, single point].
In the case of Cc1ccnc(NC(=O)c2cc3ccccc3oc2=O)c1, the Potency is reported as inconclusive: 2.31 µM [activator, partial curve].
In the case of CCc1ccc(N(CC(=O)NC2CC2)S(=O)(=O)c2ccc(C)cc2)cc1, the “activity change, positive = activation” value is reported as inactive: 2.4%.
With COCCCNC(=S)Nc1ccc(S(=O)(=O)Nc2cc(OC)nc(OC)n2)cc1 the “activity change, positive = activation” value was inactive: 0.0177%.
